Reference: paper PMC12889043
No constants are given. Whether binding was seen depends on the method and setting. In cells and extracts the contact can be indirect. Some entries that bind do so weakly or less than the wild type. Sequences can lack the tags named with a protein.

T1: Flag-tagged full-length human RND3 (pcDNA3.1-Flag-hRND3) (human) (UniProt P61587)
T1 sequence: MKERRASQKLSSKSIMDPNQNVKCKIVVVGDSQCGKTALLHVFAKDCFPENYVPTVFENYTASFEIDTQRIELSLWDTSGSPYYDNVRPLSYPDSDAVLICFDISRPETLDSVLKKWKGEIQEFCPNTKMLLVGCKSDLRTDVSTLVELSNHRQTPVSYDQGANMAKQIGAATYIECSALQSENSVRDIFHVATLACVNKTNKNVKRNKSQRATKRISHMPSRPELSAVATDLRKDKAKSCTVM

T2: HA-IKKε (IκB kinase epsilon) (UniProt Q14164)
T2 sequence: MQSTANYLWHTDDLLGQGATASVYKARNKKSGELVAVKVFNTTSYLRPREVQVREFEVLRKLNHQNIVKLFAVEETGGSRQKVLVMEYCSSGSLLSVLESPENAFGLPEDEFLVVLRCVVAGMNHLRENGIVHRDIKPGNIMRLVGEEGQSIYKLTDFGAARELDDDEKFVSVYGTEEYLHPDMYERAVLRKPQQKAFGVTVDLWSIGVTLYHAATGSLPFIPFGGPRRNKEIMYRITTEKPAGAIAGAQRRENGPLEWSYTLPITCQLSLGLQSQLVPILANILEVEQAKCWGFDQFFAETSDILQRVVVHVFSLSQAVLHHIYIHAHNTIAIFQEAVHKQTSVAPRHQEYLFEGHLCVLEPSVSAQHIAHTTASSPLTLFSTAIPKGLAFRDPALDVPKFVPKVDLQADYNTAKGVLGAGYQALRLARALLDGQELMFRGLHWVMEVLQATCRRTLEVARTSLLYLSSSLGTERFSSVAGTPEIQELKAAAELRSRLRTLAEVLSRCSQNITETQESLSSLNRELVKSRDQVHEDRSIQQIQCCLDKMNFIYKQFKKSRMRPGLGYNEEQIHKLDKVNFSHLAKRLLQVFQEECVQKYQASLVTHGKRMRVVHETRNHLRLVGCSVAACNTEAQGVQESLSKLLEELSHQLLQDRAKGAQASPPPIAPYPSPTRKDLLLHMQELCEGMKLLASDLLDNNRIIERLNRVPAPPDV


Columns and labels:
[1] = target: T1, Flag-tagged full-length human RND3 (pcDNA3.1-Flag-hRND3) (human); assay: co-IP; HEK293T co-transfected with Flag-RND3 and one HA-tagged adaptor, 24 h; RIPA lysate; anti-Flag agarose affinity gel overnight at 4 C, washed with cold TBS; blot with anti-HA
[2] = target: T1, Flag-tagged full-length human RND3 (pcDNA3.1-Flag-hRND3) (human); assay: co-IP; HEK293T transfected with HA-IKKε or Flag-RND3 alone, 24 h; precipitate blotted with anti-RND3 or anti-IKKε for the endogenous partner
[3] = target: T2, HA-IKKε (IκB kinase epsilon); assay: as above

Row | Binder | binding [1] | other results
1 | HA-IRF3 (protein, UniProt Q14653 1-427) MGTPKPRILPWLVSQLDLGQLEGVAWVNKSRTRFRIPWKHGLRQDAQQEDFGIFQAWAEATGAYVPGRDKPDLPTWKRNFRSALNRKEGLRLAEDRSKDPHDPHKIYEFVNSGVGDFSQPDTSPDTNGGGSTSDTQEDILDELLGNMVLAPLPDPGPPSLAVAPEPCPQPLRSPSLDNPTPFPNLGPSENPLKRLLVPGEEWEFEVTAFYRGRQVFQQTISCPEGLRLVGSEVGDRTLPGWPVTLPDPGMSLTDRGVMSYVRHVLSCLGGGLALWRAGQWLWAQRLGHCHTYWAVSEELLPNSGHGPDGEVPKDKEGGVFDLGPFIVDLITFTEGSGRSPRYALWFCVGESWPQDQPWTKRLVMVKVVPTCLRALVEMARVGGASSLENTVDLHISNSHPLSLTSDQYKAYLQDLVEGMDFQGPGES | no binding | –
2 | HA-IKKε (IκB kinase epsilon) (protein, UniProt Q14164 1-716) MQSTANYLWHTDDLLGQGATASVYKARNKKSGELVAVKVFNTTSYLRPREVQVREFEVLRKLNHQNIVKLFAVEETGGSRQKVLVMEYCSSGSLLSVLESPENAFGLPEDEFLVVLRCVVAGMNHLRENGIVHRDIKPGNIMRLVGEEGQSIYKLTDFGAARELDDDEKFVSVYGTEEYLHPDMYERAVLRKPQQKAFGVTVDLWSIGVTLYHAATGSLPFIPFGGPRRNKEIMYRITTEKPAGAIAGAQRRENGPLEWSYTLPITCQLSLGLQSQLVPILANILEVEQAKCWGFDQFFAETSDILQRVVVHVFSLSQAVLHHIYIHAHNTIAIFQEAVHKQTSVAPRHQEYLFEGHLCVLEPSVSAQHIAHTTASSPLTLFSTAIPKGLAFRDPALDVPKFVPKVDLQADYNTAKGVLGAGYQALRLARALLDGQELMFRGLHWVMEVLQATCRRTLEVARTSLLYLSSSLGTERFSSVAGTPEIQELKAAAELRSRLRTLAEVLSRCSQNITETQESLSSLNRELVKSRDQVHEDRSIQQIQCCLDKMNFIYKQFKKSRMRPGLGYNEEQIHKLDKVNFSHLAKRLLQVFQEECVQKYQASLVTHGKRMRVVHETRNHLRLVGCSVAACNTEAQGVQESLSKLLEELSHQLLQDRAKGAQASPPPIAPYPSPTRKDLLLHMQELCEGMKLLASDLLDNNRIIERLNRVPAPPDV | binds | –
3 | endogenous IKKε (protein, UniProt Q14164 1-716) MQSTANYLWHTDDLLGQGATASVYKARNKKSGELVAVKVFNTTSYLRPREVQVREFEVLRKLNHQNIVKLFAVEETGGSRQKVLVMEYCSSGSLLSVLESPENAFGLPEDEFLVVLRCVVAGMNHLRENGIVHRDIKPGNIMRLVGEEGQSIYKLTDFGAARELDDDEKFVSVYGTEEYLHPDMYERAVLRKPQQKAFGVTVDLWSIGVTLYHAATGSLPFIPFGGPRRNKEIMYRITTEKPAGAIAGAQRRENGPLEWSYTLPITCQLSLGLQSQLVPILANILEVEQAKCWGFDQFFAETSDILQRVVVHVFSLSQAVLHHIYIHAHNTIAIFQEAVHKQTSVAPRHQEYLFEGHLCVLEPSVSAQHIAHTTASSPLTLFSTAIPKGLAFRDPALDVPKFVPKVDLQADYNTAKGVLGAGYQALRLARALLDGQELMFRGLHWVMEVLQATCRRTLEVARTSLLYLSSSLGTERFSSVAGTPEIQELKAAAELRSRLRTLAEVLSRCSQNITETQESLSSLNRELVKSRDQVHEDRSIQQIQCCLDKMNFIYKQFKKSRMRPGLGYNEEQIHKLDKVNFSHLAKRLLQVFQEECVQKYQASLVTHGKRMRVVHETRNHLRLVGCSVAACNTEAQGVQESLSKLLEELSHQLLQDRAKGAQASPPPIAPYPSPTRKDLLLHMQELCEGMKLLASDLLDNNRIIERLNRVPAPPDV | – | binding [2]: binds
4 | HA-MDA5 (protein, UniProt Q9BYX4 1-1025) MSNGYSTDENFRYLISCFRARVKMYIQVEPVLDYLTFLPAEVKEQIQRTVATSGNMQAVELLLSTLEKGVWHLGWTREFVEALRRTGSPLAARYMNPELTDLPSPSFENAHDEYLQLLNLLQPTLVDKLLVRDVLDKCMEEELLTIEDRNRIAAAENNGNESGVRELLKRIVQKENWFSAFLNVLRQTGNNELVQELTGSDCSESNAEIENLSQVDGPQVEEQLLSTTVQPNLEKEVWGMENNSSESSFADSSVVSESDTSLAEGSVSCLDESLGHNSNMGSDSGTMGSDSDEENVAARASPEPELQLRPYQMEVAQPALEGKNIIICLPTGSGKTRVAVYIAKDHLDKKKKASEPGKVIVLVNKVLLVEQLFRKEFQPFLKKWYRVIGLSGDTQLKISFPEVVKSCDIIISTAQILENSLLNLENGEDAGVQLSDFSLIIIDECHHTNKEAVYNNIMRHYLMQKLKNNRLKKENKPVIPLPQILGLTASPGVGGATKQAKAEEHILKLCANLDAFTIKTVKENLDQLKNQIQEPCKKFAIADATREDPFKEKLLEIMTRIQTYCQMSPMSDFGTQPYEQWAIQMEKKAAKEGNRKERVCAEHLRKYNEALQINDTIRMIDAYTHLETFYNEEKDKKFAVIEDDSDEGGDDEYCDGDEDEDDLKKPLKLDETDRFLMTLFFENNKMLKRLAENPEYENEKLTKLRNTIMEQYTRTEESARGIIFTKTRQSAYALSQWITENEKFAEVGVKAHHLIGAGHSSEFKPMTQNEQKEVISKFRTGKINLLIATTVAEEGLDIKECNIVIRYGLVTNEIAMVQARGRARADESTYVLVAHSGSGVIEHETVNDFREKMMYKAIHCVQNMKPEEYAHKILELQMQSIMEKKMKTKRNIAKHYKNNPSLITFLCKNCSVLACSGEDIHVIEKMHHVNMTPEFKELYIVRENKALQKKCADYQINGEIICKCGQAWGTMMVHKGLDLPCLKIRNFVVVFKNNSTKKQYKKWVELPITFPNLDYSECCLFSDED | no binding | –
5 | endogenous RND3 (protein, UniProt P61587 1-244) MKERRASQKLSSKSIMDPNQNVKCKIVVVGDSQCGKTALLHVFAKDCFPENYVPTVFENYTASFEIDTQRIELSLWDTSGSPYYDNVRPLSYPDSDAVLICFDISRPETLDSVLKKWKGEIQEFCPNTKMLLVGCKSDLRTDVSTLVELSNHRQTPVSYDQGANMAKQIGAATYIECSALQSENSVRDIFHVATLACVNKTNKNVKRNKSQRATKRISHMPSRPELSAVATDLRKDKAKSCTVM | – | binding [3]: binds

Now from value to binder, other results behind:

Row | binding [1] | Binder | other results
6 | no binding | HA-TBK1 (protein, UniProt Q9UHD2 1-729) MQSTSNHLWLLSDILGQGATANVFRGRHKKTGDLFAIKVFNNISFLRPVDVQMREFEVLKKLNHKNIVKLFAIEEETTTRHKVLIMEFCPCGSLYTVLEEPSNAYGLPESEFLIVLRDVVGGMNHLRENGIVHRDIKPGNIMRVIGEDGQSVYKLTDFGAARELEDDEQFVSLYGTEEYLHPDMYERAVLRKDHQKKYGATVDLWSIGVTFYHAATGSLPFRPFEGPRRNKEVMYKIITGKPSGAISGVQKAENGPIDWSGDMPVSCSLSRGLQVLLTPVLANILEADQEKCWGFDQFFAETSDILHRMVIHVFSLQQMTAHKIYIHSYNTATIFHELVYKQTKIISSNQELIYEGRRLVLEPGRLAQHFPKTTEENPIFVVSREPLNTIGLIYEKISLPKVHPRYDLDGDASMAKAITGVVCYACRIASTLLLYQELMRKGIRWLIELIKDDYNETVHKKTEVVITLDFCIRNIEKTVKVYEKLMKINLEAAELGEISDIHTKLLRLSSSQGTIETSLQDIDSRLSPGGSLADAWAHQEGTHPKDRNVEKLQVLLNCMTEIYYQFKKDKAERRLAYNEEQIHKFDKQKLYYHATKAMTHFTDECVKKYEAFLNKSEEWIRKMLHLRKQLLSLTNQCFDIEEEVSKYQEYTNELQETLPQKMFTASSGIKHTMTPIYPSSNTLVEMTLGMKKLKEEMEGVVKELAENNHILERFGSLTMDGGLRNVDCL | –
7 | no binding | HA-RIG-I (protein, UniProt O95786 1-925) MTTEQRRSLQAFQDYIRKTLDPTYILSYMAPWFREEEVQYIQAEKNNKGPMEAATLFLKFLLELQEEGWFRGFLDALDHAGYSGLYEAIESWDFKKIEKLEEYRLLLKRLQPEFKTRIIPTDIISDLSECLINQECEEILQICSTKGMMAGAEKLVECLLRSDKENWPKTLKLALEKERNKFSELWIVEKGIKDVETEDLEDKMETSDIQIFYQEDPECQNLSENSCPPSEVSDTNLYSPFKPRNYQLELALPAMKGKNTIICAPTGCGKTFVSLLICEHHLKKFPQGQKGKVVFFANQIPVYEQQKSVFSKYFERHGYRVTGISGATAENVPVEQIVENNDIIILTPQILVNNLKKGTIPSLSIFTLMIFDECHNTSKQHPYNMIMFNYLDQKLGGSSGPLPQVIGLTASVGVGDAKNTDEALDYICKLCASLDASVIATVKHNLEELEQVVYKPQKFFRKVESRISDKFKYIIAQLMRDTESLAKRICKDLENLSQIQNREFGTQKYEQWIVTVQKACMVFQMPDKDEESRICKALFLYTSHLRKYNDALIISEHARMKDALDYLKDFFSNVRAAGFDEIEQDLTQRFEEKLQELESVSRDPSNENPKLEDLCFILQEEYHLNPETITILFVKTRALVDALKNWIEGNPKLSFLKPGILTGRGKTNQNTGMTLPAQKCILDAFKASGDHNILIATSVADEGIDIAQCNLVILYEYVGNVIKMIQTRGRGRARGSKCFLLTSNAGVIEKEQINMYKEKMMNDSILRLQTWDEAVFREKILHIQTHEKFIRDSQEKPKPVPDKENKKLLCRKCKALACYTADVRVIEECHYTVLGDAFKECFVSRPHPKPKQFSSFEKRAKIFCARQNCSHDWGIHVKYKTFEIPVIKIESFVVEDIATGVQTLYSKWKDFHFEKIPFDPAEMSK | –
